# The list shows a part of the results.
# Tests used:
# Assay in all cases: glycan array binding signal (z-score within array); higher = stronger binding
# Details in all cases: glycan notation: IUPAC condensed, linker removed
# [1] = biological target: Fuc(a1-2)Gal
# In short: (§1)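 The binding signal is a Z-score computed within each array. Data were drawn from 3228 arrays in the Consortium for Functional Glycomics database, restricted to those with a known protein sequence. Scores were averaged over arrays of the same protein sequence at different concentrations or buffers, and over linkers, and negative values can be taken as non-binding.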
# [2] = biological target: Fuc(a1-2)Gal(b1-3)GalNAc
# In short: as §1
# [3] = biological target: Fuc(a1-2)Gal(b1-3)GalNAc(b1-3)Gal
# In short: as §1
# [4] = biological target: Fuc(a1-2)Gal(b1-3)GalNAc(b1-3)Gal(a1-4)Gal(b1-4)Glc
# In short: as §1
# [5] = biological target: Fuc(a1-2)Gal(b1-3)GalNAc(b1-4)[Neu5Ac(a2-3)]Gal(b1-4)Glc
# In short: as §1
# [6] = biological target: Fuc(a1-2)Gal(b1-3)GlcNAc
# In short: as §1
# [7] = biological target: Fuc(a1-2)Gal(b1-3)[Fuc(a1-4)]GlcNAc
# In short: as §1
# [8] = biological target: Fuc(a1-2)Gal(b1-4)Glc
# In short: as §1
# [9] = biological target: Fuc(a1-2)Gal(b1-4)GlcNAc
# In short: as §1
# [10] = biological target: Fuc(a1-2)Gal(b1-4)GlcNAc(b1-3)Gal(b1-4)GlcNAc
# In short: as §1
# [11] = biological target: Fuc(a1-2)Gal(b1-4)GlcNAc(b1-3)Gal(b1-4)GlcNAc(b1-3)Gal(b1-4)GlcNAc
# In short: as §1
# [12] = biological target: Fuc(a1-2)Gal(b1-4)[Fuc(a1-3)]GlcNAc
# In short: as §1
# [13] = biological target: Fuc(a1-2)GlcNAc
# In short: as §1
# [14] = biological target: Fuc(a1-2)[Gal(a1-3)]Gal
# In short: as §1
# [15] = biological target: Fuc(a1-2)[Gal(a1-3)]Gal(b1-4)GlcNAc
# In short: as §1
# [16] = biological target: Fuc(a1-2)[Gal(a1-4)]Gal(b1-4)GlcNAc
# In short: as §1
# [17] = biological target: Fuc(a1-2)[GalNAc(a1-3)]Gal
# In short: as §1
# [18] = biological target: Fuc(a1-2)[GalNAc(a1-3)]Gal(b1-4)GlcNAc
# In short: as §1
# [19] = biological target: Fuc(a1-2)[GalNAc(a1-4)]Gal(b1-4)GlcNAc
# In short: as §1
# [20] = biological target: Fuc(a1-2)[GalNAc(b1-3)]Gal
# In short: as §1
# [21] = biological target: Fuc(a1-3)GlcNAc
# In short: as §1
# [22] = biological target: Fuc(a1-3)[Gal(b1-4)]GlcNAc
# In short: as §1
# [23] = biological target: Fuc(a1-3)[Gal(b1-4)]GlcNAc(b1-3)Gal(b1-4)[Fuc(a1-3)]GlcNAc
# In short: as §1
# [24] = biological target: Fuc(a1-3)[Gal(b1-4)]GlcNAc(b1-3)Gal(b1-4)[Fuc(a1-3)]GlcNAc(b1-3)Gal(b1-4)[Fuc(a1-3)]GlcNAc
# In short: as §1
# [25] = biological target: Fuc(a1-3)[Gal3S(b1-4)]GlcNAc
# In short: as §1
# [26] = biological target: Fuc(b1-3)GlcNAc
# In short: as §1
# [27] = biological target: Gal(a1-2)Gal
# In short: as §1
# [28] = biological target: Gal(a1-3)Gal
# In short: as §1
# [29] = biological target: Gal(a1-3)Gal(b1-4)Glc
# In short: as §1
# [30] = biological target: Gal(a1-3)Gal(b1-4)GlcNAc
# In short: as §1
# [31] = biological target: Gal(a1-3)Gal(b1-4)[Fuc(a1-3)]GlcNAc
# In short: as §1
# [32] = biological target: Gal(a1-3)GalNAc
# In short: as §1
# [33] = biological target: Gal(a1-3)[Gal(a1-4)]Gal(b1-4)GlcNAc
# In short: as §1
# [34] = biological target: Gal(a1-4)Gal(b1-4)Glc
# In short: as §1
# [35] = biological target: Gal(a1-4)Gal(b1-4)GlcNAc
# In short: as §1
# [36] = biological target: Gal(a1-4)GlcNAc
# In short: as §1
# [37] = biological target: Gal(a1-6)Glc
# In short: as §1
# [38] = biological target: Gal(b1-2)Gal
# In short: as §1
# [39] = biological target: Gal(b1-3)Gal
# In short: as §1
# [40] = biological target: Gal(b1-3)GalNAc
# In short: as §1
# [41] = biological target: Gal(b1-3)GalNAc(b1-4)Gal(b1-4)Glc
# In short: as §1
# [42] = biological target: Gal(b1-3)GalNAc(b1-4)[Neu5Ac(a2-3)]Gal(b1-4)Glc
# In short: as §1
# [43] = biological target: Gal(b1-3)GlcNAc
# In short: as §1
# [44] = biological target: Gal(b1-3)GlcNAc(b1-3)Gal(b1-4)Glc
# In short: as §1
# [45] = biological target: Gal(b1-3)[Fuc(a1-4)]GlcNAc
# In short: as §1
# [46] = biological target: Gal(b1-3)[GlcNAc(b1-6)]GalNAc
# In short: as §1
# [47] = biological target: Gal(b1-3)[Neu5Ac(a2-6)]GalNAc
# In short: as §1
# [48] = biological target: Gal(b1-3)[Neu5Ac(a2-6)]GlcNAc(b1-4)Gal(b1-4)Glc
# In short: as §1
# [49] = biological target: Gal(b1-3)[Neu5Ac(b2-6)]GalNAc
# In short: as §1
# [50] = biological target: Gal(b1-4)GalNAc(a1-3)[Fuc(a1-2)]Gal(b1-4)GlcNAc
# In short: as §1
# [51] = biological target: Gal(b1-4)Glc
# In short: as §1
# [52] = biological target: Gal(b1-4)Glc6S
# In short: as §1
# [53] = biological target: Gal(b1-4)GlcNAc
# In short: as §1
# [54] = biological target: Gal(b1-4)GlcNAc(b1-3)Gal(b1-4)Glc
# In short: as §1
# [55] = biological target: Gal(b1-4)GlcNAc(b1-3)Gal(b1-4)GlcNAc
# In short: as §1
# [56] = biological target: Gal(b1-4)GlcNAc(b1-3)Gal(b1-4)GlcNAc(b1-3)Gal(b1-4)GlcNAc
# In short: as §1
# [57] = biological target: Gal(b1-4)GlcNAc(b1-3)Gal(b1-4)[Fuc(a1-3)]GlcNAc(b1-3)Gal(b1-4)[Fuc(a1-3)]GlcNAc
# In short: as §1
# [58] = biological target: Gal(b1-4)GlcNAc(b1-3)GalNAc
# In short: as §1
# [59] = biological target: Gal(b1-4)GlcNAc(b1-3)[Gal(b1-4)GlcNAc(b1-6)]GalNAc
# In short: as §1
# [60] = biological target: Gal(b1-4)GlcNAc(b1-6)GalNAc
# In short: as §1
# [61] = biological target: Gal(b1-4)GlcNAc(b1-6)[Gal(b1-3)]GalNAc
# In short: as §1
# [62] = biological target: Gal3S(b1-3)GalNAc
# In short: as §1
# [63] = biological target: Gal3S(b1-3)GlcNAc
# In short: as §1
# [64] = biological target: Gal3S(b1-3)[Fuc(a1-4)]GlcNAc
# In short: as §1
# [65] = biological target: Gal3S(b1-4)Glc
# In short: as §1
# [66] = biological target: Gal3S(b1-4)Glc6S
# In short: as §1
# [67] = biological target: Gal3S(b1-4)GlcNAc
# In short: as §1
# [68] = biological target: Gal4S(b1-4)GlcNAc
# In short: as §1
# [69] = biological target: Gal6S(b1-4)Glc
# In short: as §1
# [70] = biological target: Gal6S(b1-4)Glc6S
# In short: as §1
# [71] = biological target: GalNAc(a1-3)Gal
# In short: as §1
# [72] = biological target: GalNAc(a1-3)GalNAc
# In short: as §1
binder,measurement,setting,value
"Hip/Pap (Homo sapiens), Q06141 (protein) MLPPMALPSVSWMLLSCLMLLSQVQGEEPQRELPSARIRCPKGSKAYGSHCYALFLSPKSWTDADLACQKRPSGNLVSVLSGAEGSFVSSLVKSIGNSYSYVWIGLHDPTQGTEPNGEGWEWSSSDVMNYFAWERNPSTISSPGHCASLSRSTAFLRWKDYNCNVRLPYVCKFTD",glycan array binding signal (z-score),[1],-0.178
same,glycan array binding signal (z-score),[2],-0.179
same,glycan array binding signal (z-score),[3],-0.155
same,glycan array binding signal (z-score),[4],-0.127
same,glycan array binding signal (z-score),[5],-0.177
same,glycan array binding signal (z-score),[6],-0.119
same,glycan array binding signal (z-score),[7],-0.18
same,glycan array binding signal (z-score),[8],-0.166
same,glycan array binding signal (z-score),[9],-0.186
same,glycan array binding signal (z-score),[10],-0.027
same,glycan array binding signal (z-score),[11],-0.194
same,glycan array binding signal (z-score),[12],-0.172
same,glycan array binding signal (z-score),[13],-0.128
same,glycan array binding signal (z-score),[14],-0.174
same,glycan array binding signal (z-score),[15],0.204
same,glycan array binding signal (z-score),[16],-0.195
same,glycan array binding signal (z-score),[17],-0.149
same,glycan array binding signal (z-score),[18],-0.163
same,glycan array binding signal (z-score),[19],-0.018
same,glycan array binding signal (z-score),[20],-0.121
same,glycan array binding signal (z-score),[21],-0.146
same,glycan array binding signal (z-score),[22],-0.181
same,glycan array binding signal (z-score),[23],-0.135
same,glycan array binding signal (z-score),[24],-0.149
same,glycan array binding signal (z-score),[25],-0.171
same,glycan array binding signal (z-score),[26],-0.18
same,glycan array binding signal (z-score),[27],-0.11
same,glycan array binding signal (z-score),[28],-0.187
same,glycan array binding signal (z-score),[29],-0.176
same,glycan array binding signal (z-score),[30],-0.133
same,glycan array binding signal (z-score),[31],0.228
same,glycan array binding signal (z-score),[32],-0.16
same,glycan array binding signal (z-score),[33],-0.164
same,glycan array binding signal (z-score),[34],0.012
same,glycan array binding signal (z-score),[35],-0.155
same,glycan array binding signal (z-score),[36],-0.046
same,glycan array binding signal (z-score),[37],0.232
same,glycan array binding signal (z-score),[38],-0.156
same,glycan array binding signal (z-score),[39],-0.107
same,glycan array binding signal (z-score),[40],-0.147
same,glycan array binding signal (z-score),[41],-0.156
same,glycan array binding signal (z-score),[42],-0.185
same,glycan array binding signal (z-score),[43],-0.137
same,glycan array binding signal (z-score),[44],-0.154
same,glycan array binding signal (z-score),[45],-0.168
same,glycan array binding signal (z-score),[46],-0.159
same,glycan array binding signal (z-score),[47],-0.098
same,glycan array binding signal (z-score),[48],-0.105
same,glycan array binding signal (z-score),[49],-0.141
same,glycan array binding signal (z-score),[50],-0.153
same,glycan array binding signal (z-score),[51],-0.114
same,glycan array binding signal (z-score),[52],-0.129
same,glycan array binding signal (z-score),[53],-0.175
same,glycan array binding signal (z-score),[54],-0.133
same,glycan array binding signal (z-score),[55],-0.157
same,glycan array binding signal (z-score),[56],-0.173
same,glycan array binding signal (z-score),[57],-0.061
same,glycan array binding signal (z-score),[58],-0.184
same,glycan array binding signal (z-score),[59],-0.129
same,glycan array binding signal (z-score),[60],-0.167
same,glycan array binding signal (z-score),[61],-0.154
same,glycan array binding signal (z-score),[62],-0.175
same,glycan array binding signal (z-score),[63],-0.187
same,glycan array binding signal (z-score),[64],-0.164
same,glycan array binding signal (z-score),[65],0.278
same,glycan array binding signal (z-score),[66],-0.066
same,glycan array binding signal (z-score),[67],-0.166
same,glycan array binding signal (z-score),[68],-0.181
same,glycan array binding signal (z-score),[69],-0.162
same,glycan array binding signal (z-score),[70],-0.157
same,glycan array binding signal (z-score),[71],-0.144
same,glycan array binding signal (z-score),[72],0.07

# — the supplement of paper PMC8728848
